Experimental findings from paper doi:10.1101/2025.11.14.688473 are described below.

The target in this assay is T1, Atg9-PA (S. cerevisiae) (UniProt Q12142).
T1 sequence: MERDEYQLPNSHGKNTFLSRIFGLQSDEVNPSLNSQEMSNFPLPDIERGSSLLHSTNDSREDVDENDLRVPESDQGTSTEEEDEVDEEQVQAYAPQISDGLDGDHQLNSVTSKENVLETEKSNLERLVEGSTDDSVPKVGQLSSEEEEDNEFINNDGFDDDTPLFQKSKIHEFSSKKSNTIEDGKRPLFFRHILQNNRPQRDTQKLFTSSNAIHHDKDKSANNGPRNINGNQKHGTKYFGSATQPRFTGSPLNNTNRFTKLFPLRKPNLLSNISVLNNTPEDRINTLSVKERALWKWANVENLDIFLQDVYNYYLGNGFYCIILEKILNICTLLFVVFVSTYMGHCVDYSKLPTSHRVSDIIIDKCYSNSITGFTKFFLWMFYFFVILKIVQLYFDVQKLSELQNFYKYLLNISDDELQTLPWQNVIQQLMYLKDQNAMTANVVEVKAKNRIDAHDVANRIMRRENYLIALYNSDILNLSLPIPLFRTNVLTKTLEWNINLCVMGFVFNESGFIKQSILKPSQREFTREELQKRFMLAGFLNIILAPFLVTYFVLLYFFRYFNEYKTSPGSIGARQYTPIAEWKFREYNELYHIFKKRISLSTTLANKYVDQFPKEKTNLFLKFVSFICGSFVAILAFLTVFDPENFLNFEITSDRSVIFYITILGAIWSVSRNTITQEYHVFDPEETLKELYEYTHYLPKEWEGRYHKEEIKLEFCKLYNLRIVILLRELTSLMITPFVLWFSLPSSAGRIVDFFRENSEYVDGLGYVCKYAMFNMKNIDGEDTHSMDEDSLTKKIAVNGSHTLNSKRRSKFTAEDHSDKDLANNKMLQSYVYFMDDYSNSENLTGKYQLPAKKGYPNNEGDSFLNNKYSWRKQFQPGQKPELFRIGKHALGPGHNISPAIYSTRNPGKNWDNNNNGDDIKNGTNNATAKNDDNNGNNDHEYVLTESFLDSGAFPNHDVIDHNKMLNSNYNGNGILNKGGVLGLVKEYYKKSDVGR
In words: co-IP; overexpressed GFP-Atg11 or mutants precipitated by overexpressed Protein A-tagged Atg9; blots probed with anti-GFP; washes at 4°C; as in Meyer et al., 2022.

These are yes or no findings as the source states them, for the method shown. In cells and extracts the contact can be indirect. Some binding calls cover weakened binding; strength is not graded here. Sequences can lack the tags named with a protein.

B1: GFP-Atg11ΔCC2 (protein, UniProt Q12527)
chain: MADADEYSTAPTQQEITPLQTTATIINAISGECITTNVDFFVSLDKFKQFIARKWKIPPDQLLILLPYGNKLKPSMFKELLINRSFTLNDFYVYDRRLFSLVSKPTPTNLLTSKDSNPMNSPNSNDLTETLEYLIKNSHISQYQGSDTIMIKPMPSPLEDADVDLSRLNYHSVTSLLTTNLGWLSALEIDVHYFKSLIPDIIAHIKRIFDGLTVCSQYLKLYCFDVESLYNSNVQFLNQLVDNGMTSKWEKCFNDTLSKLTALEGDSLQKFINIESLLENEKSVKILNHSINGKLNKIKREIDENASFRDIITVNIDRLRQMFTPNESKFELEDQMAESFEVLVSEMRTRSRNVLDKEEEEFNSQEFLKSMNVMLEKDKKESVKTLFTISQALYSQIGELIDLKKSLQKHAVAILGNIAFTQMEILGIKRLLLNECNKDLELYKKYEVEFAQVEDLPLIYGLYLIEKYRRLSWFQQILSFISNFNQDLELFKQNELRTRNKWVKNFGSIATVFCEDLLSSSDFKRLNEYHSHTSPPIIDLLSKTLFETKRFHIIYSNFKNNNNNSSNGNSISPEGSIALKSDDVVKGYKTRIKKLESLLHEFQYSDIGHWPQGVLNTHLKPFRGSATSINKKKFLGASVLLEPANISEVNIDSVSQANNHQIQELESNVDDLLHQLQLLKEENNRKSMQISEMGKKISDLEVEKTAYRETLTNLNQELARLTNEEQSHRTEIFTLNASFKKQLNDIISQDNEKIEKLTGDYDDVSKSRERLQMDLDESNKKHEQEVNLLKADIERLGKQIVTSEKSYAETNSSSMEKGEKFETIPLAEDPGRENQISAYTQTLQDRIFDIISTNIFILENIGLLLTFDNNNNIQIRRVKGLKKGTAQSNILDESTQMLDAHDNSLIKSPVFQKLKDEYELIKSVANGSEKDTQQSIFLGNITQLYDNKLYEVAVIRRFKDIETLAKKLTKENKIKRTLLERFQREKVTLRNFQIGDLALFLPTRENVNSVGSMSSSTSSLSSSFSSVDLSTPPPLDAMSIQSSPSVIHSNVINQASISGRDKNKLMRPWAAFTAFEESTRYFLKDEKGLTKGKEWFVGRIVTLEHFVADSPSNNPFRLPKGSVWFQVTAVVVSYQGV
As to B1, the binding result is reported as “no binding”.

B2: GFP-Atg11 IA3 (protein, UniProt Q12527 1-575; P01094 2-53; Q12527 628-1178)
chain: MADADEYSTAPTQQEITPLQTTATIINAISGECITTNVDFFVSLDKFKQFIARKWKIPPDQLLILLPYGNKLKPSMFKELLINRSFTLNDFYVYDRRLFSLVSKPTPTNLLTSKDSNPMNSPNSNDLTETLEYLIKNSHISQYQGSDTIMIKPMPSPLEDADVDLSRLNYHSVTSLLTTNLGWLSALEIDVHYFKSLIPDIIAHIKRIFDGLTVCSQYLKLYCFDVESLYNSNVQFLNQLVDNGMTSKWEKCFNDTLSKLTALEGDSLQKFINIESLLENEKSVKILNHSINGKLNKIKREIDENASFRDIITVNIDRLRQMFTPNESKFELEDQMAESFEVLVSEMRTRSRNVLDKEEEEFNSQEFLKSMNVMLEKDKKESVKTLFTISQALYSQIGELIDLKKSLQKHAVAILGNIAFTQMEILGIKRLLLNECNKDLELYKKYEVEFAQVEDLPLIYGLYLIEKYRRLSWFQQILSFISNFNQDLELFKQNELRTRNKWVKNFGSIATVFCEDLLSSSDFKRLNEYHSHTSPPNEDEEDENENSIANYRQDLVKVSQAIDNYMTQIKETDVSNTDQQKVSEIFQSSKEKLQGDAKVVSDAFKKMASQDKDGKTTDADESEKHNYGYKTRIKKLESLLHEFQYSDIGHWPQGVLNTHLKPFRGSATSINKKKFLGASVLLEPANISEVNIDSVSQANNHQIQELESNVDDLLHQLQLLKEENNRKSMQISEMGKKISDLEVEKTAYRETLTNLNQELARLTNEEQSHRTEIFTLNASFKKQLNDIISQDNEKIEKLTGDYDDVSKSRERLQMDLDESNKKHEQEVNLLKADIERLGKQIVTSEKSYAETNSSSMEKGEKFETIPLAEDPGRENQISAYTQTLQDRIFDIISTNIFILENIGLLLTFDNNNNIQIRRVKGLKKGTAQSNILDESTQMLDAHDNSLIKSPVFQKLKDEYELIKSVANGSEKDTQQSIFLGNITQLYDNKLYEVAVIRRFKDIETLAKKLTKENKIKRTLLERFQREKVTLRNFQIGDLALFLPTRENVNSVGSMSSSTSSLSSSFSSVDLSTPPPLDAMSIQSSPSVIHSNVINQASISGRDKNKLMRPWAAFTAFEESTRYFLKDEKGLTKGKEWFVGRIVTLEHFVADSPSNNPFRLPKGSVWFQVTAVVVSYQGV
Consider B2, for which the binding entry is listed as “binds”.
